Out of some 43,000 compounds screened, about 200 (0.47%) were called active. Inconclusive results (about 12%) are left out. Calls follow the shape of the dose curve; as a rule, active = well fitted cell-killing curve with a large enough effect; inconclusive = small, poorly fitted or top-dose-only effect, or effect the other way; inactive = flat fitted curve, though single readings scatter. The list shows a part of the results.
experiment: Cell viability qHTS assay in S16 Pmp22-F2sN cells; conditions: S16 Pmp22-F2sN Schwann cells (luciferase reporters placed in the Pmp22 gene) viability, CellTiter-Glo, 24 h; series mostly up to 57.5 µM; activity change, negative = cytotoxicity: at the top concentration; also: nearly all actives have a fitted effect of over 65% in size
Summary of the method: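 S16 Schwann cells carrying the Pmp22-F2sN reporter, seeded in 1536-well format, were exposed to library compounds for 24 h at 37C. Viability was read as CellTiter-Glo luminescence after 15 min at room temperature.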
% is scaled to controls: 0 for no effect and ±100 for the full control effect.

| SMILES | activity change, negative = cytotoxicity |
| --- | --- |
| CC(C)c1ccc(-c2noc(SCC(=O)N3CCN(c4ccc(F)cc4)CC3)n2)cc1 | inactive: 1.49% |
| CCOc1ccc(OCc2ccc(C(=O)Nc3cc(OC)c(OC)c(OC)c3)o2)cc1 | inactive: -0.25% |
| O=C(CCc1ccccc1)N(Cc1cccnc1)c1nc2c(F)cc(F)cc2s1 | inactive: -6.33% |
| Cc1ccc(C)c(NC(=O)N(C)CCc2c(C)nn(C)c2C)c1 | inactive: 2.29% |
| COc1ccc(CCNS(=O)(=O)c2cc(-c3cc(C)no3)ccc2OC)cc1OC | inactive: -1.12% |
| Cc1ccc(N2CC(C(=O)NCCS(=O)(=O)N3CCN(c4ccccc4)CC3)CC2=O)cc1C (configuration not stated) | inactive: 22.9% |
| COc1ccc(CCNc2nc3ccc(Cl)cc3n3cnnc23)cc1OC | inactive: 15.8% |
| Cc1cccc2nc(-c3ccc(N(C)C)cc3)c(Nc3ccc4c(c3)OCO4)n12 | inactive: -1.5% |
| O=C(NCCc1csc(-c2ccc(Cl)cc2)n1)c1ccco1 | inactive: 4.43% |
| COc1cccc(CNC(=O)CSc2nc(=O)[nH]c3c2CCC3)c1 | inactive: 5.89% |
| CCCN(C(=O)C(=O)Nc1ccc2nc3n(c(=O)c2c1)CCCCC3)c1ccc(OCC)cc1 | inactive: 6.97% |
| CCOc1ccccc1C(=O)Nc1cccc2ccc(C)nc12 | inactive: -4.36% |
| COc1cccc(CCNC(=O)c2ccc(Cn3c(SCc4ccccc4)nc4cccnc43)cc2)c1 | inactive: -25.7% |
| CCOc1ccc(NC(=O)NC(C)c2c(-n3cccc3)sc3c2CCN(CC)C3)cc1 (configuration not stated) | inactive: -19.5% |
| O=C(Nc1ccc2nc(SCCOc3ccccc3)sc2c1)c1ccco1 | inactive: 6.33% |
| Cc1cccn2c(=O)c3cc(C(=O)NC(C)C)n(C)c3nc12 | inactive: 20.5% |
| Cc1cccc(-c2nc3cc(NC(=O)c4ccc(OCC(C)C)cc4)ccc3o2)c1 | inactive: 12.3% |
| Cc1ccn2c(c1)nc(=O)c1cc(S(=O)(=O)N3CCCCC3)ccc12 | inactive: 1.31% |
| COc1ccc(NC(=O)c2cnc(N3CCOCC3)c3ccccc23)cc1OC | inactive: 17.8% |
| Cc1ccccc1NC(=O)C1CCN(C(=O)c2ccc(F)cc2)CC1 | inactive: 3.62% |
| CCOc1ccc(NC(=O)Cn2cc(C(=O)c3ccc(F)cc3)c(=O)c3cc4c(cc32)OCO4)cc1 | inactive: -4.13% |

| SMILES | activity change, negative = cytotoxicity |
| --- | --- |
| COc1ccc(CCNC(=O)C(=O)NCC(c2ccco2)S(=O)(=O)c2cccs2)cc1 (configuration not stated) | inactive: -3.55% |
| CCC(Sc1nc2cc3c(cc2c(=O)n1CCCCCC(=O)NCc1ccc2c(c1)OCO2)OCO3)C(=O)NCCCOC (configuration not stated) | inactive: 9.85% |
| Cc1nn2c(=O)cc(COC(=O)c3ccc(NC(=O)CCc4ccccc4)cc3)nc2s1 | inactive: 0.684% |
| Cc1cccc(OCCn2c(SCC(N)=O)nc3ccccc32)c1 | inactive: -14.1% |
| CCc1noc(-c2ccc(N3CCC(C)CC3)c([N+](=O)[O-])c2)n1 | inactive: -19.8% |
| O=C(CN1C(=O)c2cccnc2Oc2ccc(Cl)cc21)NCCCN1CCCCC1 | inactive: 10.1% |
| CC(C)C(=O)Nc1ccccc1C(=O)OCc1cc(=O)n2nc(C3CC3)sc2n1 | inactive: 20.1% |
| COc1ccc(Cn2c(CCC(=O)Nc3ccc(Br)c(C)c3)nc3cccnc32)cc1 | inactive: -1.88% |
| CCCCCn1c(=O)[nH]c2cc(C(=O)N3CCN(c4ccc(OC)cc4)CC3)ccc2c1=O | inactive: -21.6% |
| CN(C)c1ccc(C(=O)Nc2sc(Nc3ccccc3)nc2C(N)=O)cc1 | inactive: -1.11% |
| Cc1ccc(NC(=O)CN(C)S(=O)(=O)c2cccc3cccnc23)c(C)c1 | inactive: 14.5% |
| O=C(Cn1nnc(-c2ccc(C(F)(F)F)cc2)n1)NCCc1ccccc1 | inactive: 3.95% |
| Cc1cc(C)cc(NS(=O)(=O)c2cc3[nH]c(=O)c(=O)[nH]c3cc2C)c1 | inactive: 10% |
| CCOC(=O)C1CCC(CN(Cc2ccc(OC)cc2)S(=O)(=O)c2ccc(C)cc2)CC1 (configuration not stated) | inactive: 2.84% |
| CCCC(=O)Oc1c(Sc2ccc(C)cc2)c(C)nn1-c1ccccc1 | inactive: 1.52% |
| COc1cc(OC)c(C(=O)NCc2nc(-c3ccccc3)no2)cc1OC | inactive: -8.29% |
| CCc1ccc(CN(Cc2ccco2)c2cnc(S(C)(=O)=O)nc2C(=O)Nc2ccc(C)c(Cl)c2)cc1 | inactive: -2.28% |
| COc1ccc(NC(=O)c2sc3nc(C)c(C(=O)Nc4ccc(C)cc4C)c(-c4sccc4C)c3c2N)cc1 | inactive: 12.5% |
| CCc1c(CN2CCN(c3ccc(F)cc3)CC2)csc1C | inactive: 25.6% |
| CC(=O)Nc1ccc2nc(SCCOc3ccc(C)cc3)sc2c1 | inactive: 12% |
| COc1ccc(C)cc1Nc1nc2c(S(=O)(=O)c3cc(C)ccc3C)nnn2c2ccsc12 | inactive: 27.2% |

| SMILES | activity change, negative = cytotoxicity |
| --- | --- |
| Cc1ccc(CN2CCC(CNC(=O)Nc3ccccc3F)CC2)cc1 | inactive: -20.2% |
| O=C(COc1ccc(Cl)cc1)NCCc1csc(-c2ccc(C(F)(F)F)cc2)n1 | inactive: 15.8% |
| COCCNc1nc2c(S(=O)(=O)c3ccccc3)nnn2c2ccc(Cl)cc12 | inactive: -21.6% |
| COc1cc2c(cc1NC(=O)COc1cc(C)cc(C)c1)oc1ccccc12 | inactive: 9.55% |
| CN(Cc1ccccc1)C(=O)C(=O)Nc1ccc2nc3n(c(=O)c2c1)CCCCC3 | inactive: 16.4% |
| COc1ccc(-n2c(=O)c3ccc(C(=O)NCc4ccc(C)cc4)cc3n(CC(=O)Nc3cccc(F)c3)c2=O)cc1 | inactive: 8.56% |
| Cc1ccc(CNC(=O)c2cc3cc(C)ccc3n2C)cc1 | inactive: 3.95% |
| CNc1ccc(-c2nc(-c3ccccn3)no2)cc1[N+](=O)[O-] | inactive: -4.93% |
| COc1ccc(CN2C(=O)N(c3cccc(C)c3)C(=O)C2CC(=O)Nc2ccc(F)cc2)cc1OC (configuration not stated) | inactive: -1.93% |
| Cc1ccc(NC(=O)CN2C(=O)COc3ccc(S(=O)(=O)N4CCCCC4)cc32)cc1Cl | inactive: -3.82% |
| CCOC(=O)c1cc(NC(=O)c2ccc(C)cc2)c(=O)n2c1oc1ccccc12 | inactive: 16% |
| COCCCNC(=O)Cn1c(=O)n(-c2ccccc2)c(=O)c2c1c1cc(OC)ccc1n2C | inactive: 6.8% |
| CCOc1ccc(C2c3[nH]c4ccccc4c3CCN2C(=O)CSc2ccccc2)cc1 (configuration not stated) | inactive: -14% |
| Cc1ccc(-n2nc(C(=O)N3CCCCC3)c(=O)n(C)c2=O)cc1 | inactive: 4.11% |
| CCCNC(=O)C1CCC(Cn2c(=O)c3sccc3n(CC(=O)N(CC)CC)c2=O)CC1 (configuration not stated) | inactive: 14.3% |
| COc1ccc(NC(=O)Cn2nnnc2-c2ccccc2F)c(C)c1 | inactive: 1.05% |
| COC(=O)c1ccc(NC(=O)CC2C(=O)N(c3cccc(F)c3)C(=O)N2CC(C)C)cc1 (configuration not stated) | inactive: 0.0408% |
| COc1cccc(C(=O)N(Cc2ccc(N(C)C)cc2)Cc2ccco2)c1 | inactive: 15.7% |
| CCc1ccc(CNC(=O)CN2C(=O)CSc3ccc(S(=O)(=O)N4CCOCC4)cc32)cc1 | inactive: 0.389% |
| O=C(CSc1nc2c([nH]c3ccccc32)c(=O)n1-c1ccc(Cl)cc1)NCc1ccccc1 | inactive: 6.62% |

Source: PubChem BioAssay AID1508642 (National Center for Advancing Translational Sciences (NCATS), 2021)
